Article PMC7185102
These are yes or no findings as the source states them, for the method shown. In cells and extracts the contact can be indirect. Some entries that bind do so weakly or less than the wild type.

How the values were obtained:
Assay in all cases: co-IP; HEK293T cells co-transfected with the FLAG-tagged import receptor and EYFP-UL6 for 24 h; lysate incubated with anti-Flag mAb or mouse IgG control and Protein A/G PLUS-Agarose for at least 4 h or overnight at 4 °C; beads washed three times with lysis buffer; IB with anti-Flag mAb and anti-YFP pAb
[1] = molecular target: importin β1 (karyopherin β1, kβ1), 3×Flag-tagged (UniProt Q14974)
[2] = molecular target: importin α7 (karyopherin α6, kα6), Flag-tagged (UniProt O60684)
[3] = molecular target: importin α3 (karyopherin α4, kα4), Flag-tagged (UniProt O00629)
[4] = molecular target: transportin-1 (importin β2), FLAG-tagged (UniProt Q92973)
[5] = molecular target: importin α5 (karyopherin α1, kα1), Flag-tagged (UniProt P52294)

Substance: herpes simplex virus 1 (HSV-1) UL6, EYFP-tagged (from UniProt P10190 1-676)
- binding [1]: no binding
- binding [2]: binds
- binding [3]: no binding
- binding [4]: binds
- binding [5]: no binding
